The full ranking holds about 110,000 compounds; the median of “z-score” is about -0.1, and the highest 2% start at about 2. The list shows a part of the results.

In this test the target is Metabotropic glutamate receptor 8 (Rattus norvegicus) (UniProt P70579). Kind of test: mGluR8 Gi/Go-coupled signaling modulation – cell-based, rat, thallium flux, HTS, primary screen (AID 488969). To be noted: HEK293 rat mGluR8, GIRK (G protein-gated inwardly rectifying potassium channel) thallium flux, FluoZin2; at 10 µM; stronger effect = higher value; submaximal glutamate (EC20) added with thallium.
UniProt P70579, sequence (P70579 whole entry, looked up): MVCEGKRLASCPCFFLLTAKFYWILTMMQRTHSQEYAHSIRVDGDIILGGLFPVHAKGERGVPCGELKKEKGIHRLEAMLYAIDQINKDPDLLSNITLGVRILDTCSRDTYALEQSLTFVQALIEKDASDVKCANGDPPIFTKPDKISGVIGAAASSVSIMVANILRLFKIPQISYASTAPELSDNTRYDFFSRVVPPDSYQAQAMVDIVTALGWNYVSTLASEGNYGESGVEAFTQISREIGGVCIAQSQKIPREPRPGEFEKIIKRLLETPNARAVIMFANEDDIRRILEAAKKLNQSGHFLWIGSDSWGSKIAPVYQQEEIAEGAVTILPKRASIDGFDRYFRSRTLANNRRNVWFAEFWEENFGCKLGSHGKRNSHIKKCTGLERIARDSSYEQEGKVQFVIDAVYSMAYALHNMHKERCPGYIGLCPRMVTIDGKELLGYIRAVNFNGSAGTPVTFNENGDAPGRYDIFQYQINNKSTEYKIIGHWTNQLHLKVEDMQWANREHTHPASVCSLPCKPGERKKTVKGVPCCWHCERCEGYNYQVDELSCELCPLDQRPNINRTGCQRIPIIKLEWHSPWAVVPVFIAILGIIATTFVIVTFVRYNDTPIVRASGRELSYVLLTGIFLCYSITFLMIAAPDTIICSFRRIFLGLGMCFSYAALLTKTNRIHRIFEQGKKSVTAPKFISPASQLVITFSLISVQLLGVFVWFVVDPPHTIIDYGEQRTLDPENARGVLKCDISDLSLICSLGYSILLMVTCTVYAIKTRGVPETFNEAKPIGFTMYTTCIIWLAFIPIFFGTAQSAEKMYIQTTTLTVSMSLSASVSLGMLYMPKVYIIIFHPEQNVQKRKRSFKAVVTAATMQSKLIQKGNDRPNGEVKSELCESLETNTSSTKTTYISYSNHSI
Consider `CCOC(=O)C1CCN(Cc2coc3c(Cl)cc(Cl)cc3c2=O)CC1`, for which the z-score is -0.853. Consider `O=C(Nc1ccccn1)C(NS(=O)(=O)c1cccc2nsnc12)c1ccccc1` (stereo unspecified), for which the z-score was -0.0327. The compound `O=C(c1c(F)cccc1F)N(Cc1ccccn1)C1CCCC1` came in with a z-score of 1.16. The figure for `COc1ccc(OC)c(C(C)NC(=O)c2ccco2)c1` (stereo unspecified) is 0.807; for `O=C(O)/C=C/C(=O)N1CCN(c2ccccc2F)CC1` it is -0.157. The figure for `FC(F)(F)c1ccc2c(c1)nc1n2CCCC1` is -0.297.

Regarding `CC(C)(Oc1ccc(Cl)cc1)C(=O)NCCCn1ccnc1`, the z-score is -0.75. With `NCCc1nnc(SCc2ccccc2)o1`, the z-score was -0.306.

With `Cc1cc(=O)oc2cc(OCc3cc4c(cc3Cl)OCO4)ccc12`, the z-score is -0.117.

For `COc1ccc(C(=O)Nc2ccc(NC(=O)c3cccs3)cc2)cc1[N+](=O)[O-]`, the z-score is -0.114. Take `O=C(Nc1cnccn1)c1ccncc1`: the z-score was -0.0208. On to `CSc1ccccc1NC(=O)COc1ccc(Cl)cc1C`, for which the z-score was -0.353. As for `Oc1ccc(Cl)cc1-c1cc(-c2ccccc2)n[nH]1`, the figure is 0.145; as for `CCOc1cc(/C=N\NC(=O)Cc2ccccc2)ccc1OCC(=O)Nc1ccc(C)c(C)c1`, 0.591. As for `Cc1ccc(-c2[nH]nc3c2C(c2cccnc2)C(C#N)=C(N)O3)cc1` (stereo unspecified), the z-score was -0.279.

In the case of `CN1CCCN(C(=O)/C=C/c2ccc(F)cc2)CC1`, the z-score is -0.117. Regarding `C=CCN(c1cccc(C(F)(F)F)c1)S(=O)(=O)c1cccc(C(=O)OCC(=O)Nc2ccccc2)c1`, the z-score was 0.214.

Regarding `Cc1cc(OCC(=O)Nc2ccc(N3CCCC3)cc2)cc(C)c1Cl`, the z-score was found to be 0.138. In the case of `O=c1[nH]c(SCc2nc3ccccc3c(=O)n2-c2ccccc2C(F)(F)F)nc2ccccc12`, the z-score is 0.13. As for `O=C(Nc1ccc2ccccc2c1)Nc1ccc2snnc2c1`, the figure is -0.459.

For `CCOC(=O)N1CCN(C(=O)C2CCN(S(=O)(=O)c3c(C)cc(C)cc3C)CC2)CC1`, the z-score was -0.267. As for `O=C(CCNS(=O)(=O)c1cccc2nsnc12)NCc1cccs1`, the figure is 0.899; as for `Cc1c(C(=O)NCCc2ccc3c(c2)OCCO3)oc2ccccc12`, -0.63.

`COCCN(CCOC)S(=O)(=O)c1ccc(C(=O)Nc2nnc(C)o2)cc1` came in with a z-score of 0.0793. For `Cc1c(Cl)cccc1-c1ccc(C(=O)N2CCN(c3ccc([N+](=O)[O-])cc3)CC2)o1`, the z-score was determined as 0.808. The figure for `CN1C(=S)SC(N2OC3C(=O)N(c4ccccc4)C(=O)C3C2c2ccccc2)C1(C)C` (stereo unspecified) is 0.107; for `C=CCn1c(O)c(N=NC(=O)CNC(=O)/C=C/c2ccco2)c2ccccc21` it is -0.524; for `Fc1ccc(NC(=S)NCc2cccs2)cc1` it is 0.11. In the case of `CC(C)CCNC(=O)NC(=O)COc1c(F)c(F)cc(F)c1F`, the z-score was -0.275. As for `CN(C)S(=O)(=O)c1ccc2c(c1)c(=O)c(C(=O)NCCCN1CCCCCC1)cn2C`, the figure is -0.138; as for `Fc1ccccc1Cn1nnc(-c2ccc3c(c2)OCO3)n1`, -0.275; as for `O=C(O)CSc1ncnc2nc[nH]c12`, -0.258.

With `CC(C)OC(=O)c1nnc(Cc2ccc(F)cc2)o1`, the z-score was -0.69. As for `Cc1ccc(S(=O)(=O)N/N=C/c2cccn2-c2ccc(Cl)cc2)cc1`, the figure is -0.6; as for `Cc1cc(C)c(NC(=O)CN2CCN3CCCC3C2)c(C)c1` (stereo unspecified), -0.118. The figure for `CCN1C(=O)c2cccc3c(S(=O)(=O)NCc4cccnc4)ccc1c23` is -0.0876; for `COc1ccccc1OCc1ccc(C(=O)NCCN(C)C)o1` it is 0.296; for `Clc1ccc2nc(CN3CCCCC3)cn2c1` it is 0.415.

Consider `CCCS(=O)(=O)c1nc(S(=O)(=O)c2ccc(C)cc2)c(N2CCc3ccccc3C2)s1`, for which the z-score was -0.151. As for `CC(C)(C)NC(=O)C1CC(=O)OC1(C)C` (stereo unspecified), the figure is 0.00384; as for `COCCCn1c(SCc2nc3ccccc3c(=O)[nH]2)nc2ccccc2c1=O`, 0.022. As for `O=C(CCc1ccccc1)NCCC1=CCCCC1`, the figure is -0.00711; as for `CCOC(=O)c1sc2cc([N+](=O)[O-])cc(SCC(=O)OC)c2c1N`, 0.252; as for `O=c1[nH]c(NNC(=S)NCc2ccccc2)nc2c1C1(CCCCC1)Cc1ccccc1-2`, -0.00601. As for `COc1ccc(C2N3CC4(C)CN2CC(C)(C3)C4=O)cc1OC` (stereo unspecified), the figure is -0.431. As for `C=CCOc1ccc(C2CC(C)=NN2c2ccccc2)cc1` (stereo unspecified), the z-score is -0.214. The figure for `Cc1sc2nc(SCC(=O)NCCO)n(C)c(=O)c2c1C` is 0.0482; for `Cc1cc(C)c(C(=O)COC(=O)Cn2cnnn2)cc1C` it is 0.975. As for `Cc1onc(-c2c(F)cccc2Cl)c1C(=O)OCC(=O)NC(c1ccccc1)c1ccccc1`, the z-score is 0.444. As for `O=C(Nn1cnnc1)c1ccccc1-c1ccccc1`, the figure is 0.33; as for `Cc1ccc(-c2cc(C(=O)NCc3ccccn3)c3ccccc3n2)cc1`, -0.475. The figure for `CCNc1ccc(S(=O)(=O)C(F)(F)F)cc1NC(=O)C12CCC(CC1)C2` is 0.397; for `Cc1ccc(NC(=O)c2ccccc2OCC(=O)c2ccc(F)cc2)cc1` it is 0.073. Compound `CCCCC(=O)NCCc1cc2c(OC)ccc(OC)c2[nH]c1=O` showed a z-score of 0.0917. The figure for `Nc1cccc(C(=O)OCC(=O)Nc2cccc3c2C(=O)c2ccccc2C3=O)c1` is -0.135. Turning to `C/C(=N\NC(=O)c1ccco1)c1cc2ccccc2o1`, the z-score stood at 0.664.

`C=C(Br)Cn1c(CCCC)nc2ccccc21` had a z-score of 0.0993.

Turning to `COc1ccc(NC(=O)c2cc(-c3ccccc3)nc3c2c(C)nn3-c2ccccc2)c(OC)c1`, the z-score is -0.458. The figure for `COc1ccccc1NC(=O)CC(NCCN(C)C)C(=O)O` (stereo unspecified) is -0.0257; for `O=C(c1ccco1)N1CCN(c2cc(C(F)(F)F)nc3ncnn23)CC1` it is 1.33; for `CCCc1[nH]n(-c2nc3ccccc3s2)c(=O)c1C=NCCN1CCOCC1` it is -2.51. On to `COc1ccc(OCC(O)CN2CCCCC2)cc1` (stereo unspecified), for which the z-score was determined as 0.504. The figure for `CN(C(=O)CSc1nnc(N)s1)c1c(N)n(Cc2ccccc2)c(=O)[nH]c1=O` is 0.432. In the case of `Cc1ccc(-n2c(=O)[nH]cc(C(=O)N3CCc4ccccc43)c2=O)cc1`, the z-score turned out to be 0.365. The compound `CC(=O)N1CCc2cc(C(=O)CN3CCCCC3)ccc21` gave a z-score of 0.732. As for `CCCc1nc2c(sc3nc4c(cc32)COC(C)(C)C4)c(=O)n1Cc1ccco1`, the figure is -1.21. In the case of `COc1ccc(/C=C/C(O)=C2/C(=O)N(C)C3(C)CC2c2ccccc2O3)cc1` (stereo unspecified), the z-score was -1.

As for `CC(C)c1ccc(/C=N/NC(=O)c2c(Cl)cnn2C)cc1`, the z-score was -0.478. As for `O=C(CCc1[nH]c2ccccc2c1Sc1ccccc1)N(CCO)CCO`, the figure is -0.0492; as for `N#CC1=C(N)Oc2n[nH]c(-c3ccccc3)c2C1c1cccnc1` (stereo unspecified), -0.183. `Cc1[nH]nc2ncc(C(=O)c3cc(F)ccc3O)cc12`: the z-score amounted to 0.0218.

In the case of `CC1CN(c2oc(COc3ccc(Cl)cc3Cl)nc2C#N)CC(C)O1` (stereo unspecified), the z-score is -0.0172. Take `O=C(COc1cccc(Cl)c1)NNC(=S)Nc1ccccc1`: the z-score turned out to be 0.593. As for `Cc1ccc(C2=N/C(=C\N(C)C)C(=O)O2)cc1`, the figure is 0.524.

In the case of `CCNC(=S)N/N=C/c1cn(Cc2ccc(F)cc2)c2ccccc12`, the z-score is -0.181.

Take `O=C(O)C1C2C=CC(O2)C1C(=O)Nc1ccccc1C(F)(F)F` (stereo unspecified): the z-score was -0.222. On to `O=C(CNC(=O)c1ccccc1)OCC(=O)N1c2ccccc2Sc2ccccc21`, for which the z-score is -0.181. `O=C(C1CCC1)N1CCc2cc(S(=O)(=O)N3CCc4ccccc4C3)ccc21` registered a z-score of 0.525. As for `Cc1noc(C)c1S(=O)(=O)Nc1ccc(C(=O)NCCc2ccccc2)cc1`, the figure is 0.313. The figure for `Cc1cccc(CN2CCc3c(OCC(=O)N4CCCc5ccccc54)cccc3C2=O)c1` is -0.172; for `CC(=O)c1c(C(C)=O)c(C)n(-c2ccc(N)cc2)c1C` it is -0.306. As for `CCOc1cc(-c2nc(-c3ccccc3)c(-c3cc([N+](=O)[O-])ccc3C)[nH]2)ccc1O`, the figure is 0.424.

On to `CCOc1ccc(N(CC(=O)NC2CCCCC2)C(=O)CNC(=O)c2ccco2)cc1`, for which the z-score is -0.0304. As for `CN1C(=S)N(c2ccccc2)C(=O)/C1=C/c1cccs1`, the figure is -0.123. `COc1ccccc1C(=O)NCCn1cc(SCC(=O)NCc2ccco2)c2ccccc21`: the z-score was -0.281. As for `CCNc1nc(N)c(C(=C(C#N)C#N)c2ccccc2)s1`, the figure is -0.29. As for `Cc1ccccc1NC(=O)Nc1cc(S(N)(=O)=O)ccc1C`, the figure is -0.406. As for `CCc1nnc2n1N=C(c1ccc(OC)cc1)CS2`, the figure is -0.703; as for `N#CCCn1nc(-c2ccc(Cl)cc2)cc1Nc1ccccc1NC(=O)C(F)(F)F`, 1.83. `O=C(Nc1ccc2c(c1)OCO2)N1CCOCC1` came in with a z-score of 0.476. Consider `CCCc1nnc(-c2ccc(OC)cc2)o1`, for which the z-score is -0.542.

Take `COc1ccc2cc(S(=O)(=O)NCCCN3CCOCC3)ccc2c1`: the z-score is -0.0146. `Cc1cccc(C)c1NC(=O)C1(NC(=O)C2CCC(=O)N2)CCCCC1` (stereo unspecified) had a z-score of 0.117. On to `O=C(NC1CCCC1)c1cc2c(ccc3ccccc32)o1`, for which the z-score was determined as 0.185.

Regarding `CC(C)c1ccc(C(=O)N2CCCN(C(=O)c3ccc(C(C)C)cc3)CC2)cc1`, the z-score was -0.119. The figure for `S=c1[nH]nc(-c2ccco2)n1/N=C/c1ccc(Cl)cc1` is -0.0483; for `S=c1[nH]nc(-c2cccnc2)n1Cc1ccccc1` it is 0.101; for `O=C(Nc1nc(-c2cccc([N+](=O)[O-])c2)cs1)C(c1ccccc1)c1ccccc1` it is -0.0572. In turn, `O=C1Nc2cc(Cl)c(Cl)cc2N(O)N1c1ccccc1` came in with a z-score of 0.157. The figure for `CCCN=C1NC(=O)C(CC(=O)NCCc2ccc(OC)c(OC)c2)S1` (stereo unspecified) is -0.198. As for `COc1ccc(-n2cc(C(=O)Nc3cc([N+](=O)[O-])ccc3OC)c3ccccc3c2=O)cc1`, the figure is -0.173; as for `Cc1cccc(C)c1Nc1c(-c2ccsc2)nc2ncccn12`, -0.464. The figure for `O=C(COC(=O)c1cc(-c2cccs2)nn1-c1ccccc1)Nc1cc([N+](=O)[O-])ccc1Cl` is -0.0333; for `Cc1cc(C)cc(NC2=NC3(CCCCC3)N=C(N)N2)c1` it is 0.506; for `COc1ccccc1C(=O)NCC(=O)N/N=C/c1cc(Br)ccc1OC(=O)/C=C\c1ccco1` it is -0.122.

As for `Cn1c(C(=O)OCC(=O)NCc2ccco2)cc2sccc21`, the z-score was -0.0415.

The compound `CCOC(=O)NC(NCC(O)c1ccccc1)(C(F)(F)F)C(F)(F)F` (stereo unspecified) had a z-score of 0.575.

`COc1ccc2[nH]cc(/C=C(/C#N)S(=O)(=O)c3ccccc3)c2c1`: the z-score was -0.65. On to `COc1ccc(Cn2c(=O)[nH]c3cc(C(=O)Nc4ccc(N5CCN(C)CC5)cc4)ccc32)cc1`, for which the z-score amounted to 0.00534. Regarding `CC(Sc1nnc(C(F)(F)F)n1C)C(=O)NC(N)=O` (stereo unspecified), the z-score is 1.15. The figure for `COc1ccc(N(CC(=O)Nc2ccccc2C(=O)NCc2ccco2)S(C)(=O)=O)cc1` is 0.24.
